Data on 59 molecules can be found in the supplement of paper PMC10723795.

Structures can show the parent of a compound that is named as a salt. Some of the results follow.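 How the source made its calls: active = more than 2 SD below the DMSO mean: under 0.85 at 10 µM or 0.885 at 1 µM; inactive = the rest.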 Single values are uncertain, as repeats are few or missing.

This assay relates to RPE1. The experiment in a line: nucleolar normality score relative to DMSO (fraction of DMSO control); RPE1 is a non-cancer human cell line; higher = more normal nucleoli (less nucleolar stress). The conditions noted are these: 24 h.
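Further: fixed cells immunolabelled for nucleolin and UBF, 40 image fields per well in 384-well plates, per-cell score = nucleolin nucleolar/nucleoplasm intensity ratio divided by the matching UBF ratio.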

Regarding `COc1ccc(Oc2cc(NCCC(F)(F)F)c3ncc(-c4ccc(C(=O)NC5CC5)c(C)c4)n3n2)c(F)c1F`, the nucleolar normality score reads like this: (1 µM) inactive: 0.888; (10 µM) inactive: 0.87.
For `C[C@@H](Nc1cc(F)cc(F)c1)c1cc(C(=O)N(C)C)cc2c(=O)cc(N3CCOCC3)oc12` the same measures were active: 0.853 and inactive: 0.992.
For `CCOC(=O)c1cnc2ccc(-c3cncc(NS(=O)(=O)c4ccccc4)c3)cn12` the same measures were inactive: 0.994 and inactive: 0.967.
With `CC(C)=CCCC(C)(O)C1CCC2(C)C1C(O)CC1C3(C)CCC(O)C(C)(C)C3CCC12C` [(20S)-Protopanaxadiol], the nucleolar normality score reads like this: (1 µM) inactive: 1.04; (10 µM) inactive: 1.03.
Consider `O=C(NCC1(c2nc(-c3ccccc3)cs2)CCOCC1)c1cccc(-c2noc(C(F)(F)F)n2)c1`, for which the nucleolar normality score runs as follows: (1 µM) inactive: 1.05; (10 µM) inactive: 1.05.
On to `O=C(O)C(=O)O.[NH-][C@@H]1CCCC[C@H]1[NH-].[Pt+2]` [Oxaliplatin], for which the nucleolar normality score (1 µM) was active: 0.618 and the nucleolar normality score (10 µM) was inactive: 1.04.
In the same order, the values of `Cc1ccc(NC(=O)c2ccc(CN3CCN(C)CC3)cc2)cc1Nc1nccc(-c2cccnc2)n1` [Imatinib (STI571)] are inactive: 1.04 and inactive: 0.93.
In the same order, the values of `CCc1c2c(nc3ccc(O)cc13)-c1cc3c(c(=O)n1C2)COC(=O)[C@]3(O)CC` are active: 0.631 and active: 0.511.
In the same order, the values of `CCc1cc2c(cc1N1CCC(N3CCOCC3)CC1)C(C)(C)c1[nH]c3cc(C#N)ccc3c1C2=O` [Alectinib hydrochloride] are inactive: 1.05 and active: 0.333.
Consider `COc1cc(OC2CCN(C)CC2)ccc1Nc1ncc2c(n1)n(C1CCCC1)c(=O)n2C`, for which the nucleolar normality score is, setting by setting: (1 µM) inactive: 1.03; (10 µM) inactive: 1.03.
Take `Cc1cccc(-c2[nH]c(C(C)(C)C)nc2-c2ccc3c(c2)OCO3)n1`: the nucleolar normality score reads like this: (1 µM) inactive: 1.04; (10 µM) inactive: 1.11.
With `CC(NC(=O)c1ccccc1/N=C/c1c(O)ccc2ccccc12)c1ccccc1` (stereo not drawn) [Sirtinol], the nucleolar normality score by setting is: (1 µM) inactive: 1.1; (10 µM) inactive: 1.1.
On to `CCn1c(C(=O)N(C2CC2)C2CC2)cc2c3c(ncn3C)c(Nc3cc(C)n(C)n3)nc21`, for which the nucleolar normality score is, setting by setting: (1 µM) inactive: 1.02; (10 µM) inactive: 1.09.
For `CCCN1CCCC[C@H]1C(=O)Nc1c(C)cccc1C` [Ropivacaine] the same measures were inactive: 1.01 and inactive: 1.06.
As to `O=C(NCc1ccccc1)c1csc(Nc2ccncn2)n1` [Thiazovivin], the nucleolar normality score (1 µM) is inactive: 1.03 and the nucleolar normality score (10 µM) was inactive: 1.03.
As for `CNCc1ccc(-c2cc(-c3nc(-c4ccc(S(=O)(=O)C(C)C)cc4)cnc3N)on2)cc1`, the nucleolar normality score is, setting by setting: (1 µM) active: 0.818; (10 µM) active: 0.659.
`NC(=O)c1cccc2cn(-c3ccc([C@@H]4CCCNC4)cc3)nc12` [Niraparib (MK-4827) tosylate]: the nucleolar normality score by setting is: (1 µM) inactive: 0.894; (10 µM) inactive: 0.993.
In the case of `O=C(CCc1ccc(O)cc1)c1c(O)cc(O)cc1O` [Phloretin], the nucleolar normality score reads like this: (1 µM) inactive: 1.09; (10 µM) inactive: 1.09.
Turning to `Cc1cn(CCN2CCN(c3ccccc3-c3cc(C#N)cc(C(=O)NCCCN4CCCC4)c3)CC2)c2ccccc12`, the nucleolar normality score by setting is: (1 µM) active: 0.787; (10 µM) inactive: 0.994.
In the same order, the values of `CN(CC(=O)N(Cc1ccc(C2CCCCC2)cc1)c1ccc(C(=O)O)cc1)S(=O)(=O)c1c(F)c(F)c(F)c(F)c1F` are inactive: 1.1 and inactive: 0.998.
Take `Oc1c(I)cc(Cl)c2cccnc12` [Clioquinol]: the nucleolar normality score (1 µM) was inactive: 1.03 and the nucleolar normality score (10 µM) was inactive: 1.09.
In the same order, the values of `COc1cc2nccc(Oc3ccc(NC(=O)Nc4cc(C)on4)c(Cl)c3)c2cc1OC` [Tivozanib (AV-951)] are inactive: 0.989 and inactive: 1.02.
In the same order, the values of `CC(C)(C#N)c1cc(Cn2cncn2)cc(C(C)(C)C#N)c1` [Anastrozole] are inactive: 1.03 and inactive: 1.09.
In the same order, the values of `COc1cccc(-c2cc(=O)c3ccccc3o2)c1N` are inactive: 0.932 and inactive: 1.
In the case of `CNC(=O)c1cccc(-c2ccc3c(N4CCOC[C@@H]4C)nc(N4CCOC[C@@H]4C)nc3n2)c1` [Vistusertib (AZD2014)], the nucleolar normality score by setting is: (1 µM) inactive: 0.983; (10 µM) active: 0.785.
With `CCc1cc(Nc2nccc(-c3c(-c4ccc(OC)c(C(=O)Nc5c(F)cccc5F)c4)nc4ccccn34)n2)c(OC)cc1N1CCC(N2CCN(S(C)(=O)=O)CC2)CC1`, the nucleolar normality score was inactive: 0.982 (1 µM) and inactive: 1.02 (10 µM).
Take `CNC(=O)c1cc(Oc2ccc(NC(=O)Nc3cc(C(C)(C)C)nn3-c3ccc4ncccc4c3)c(F)c2)ccn1` [Rebastinib (DCC-2036)]: the nucleolar normality score was inactive: 1.02 (1 µM) and inactive: 0.86 (10 µM).
As for `C[C@]1(O)C[C@@H](c2nc(-c3ccc4ccc(-c5ccccc5)nc4c3)c3c(N)nccn32)C1` [Linsitinib (OSI-906)], the nucleolar normality score was inactive: 1.05 (1 µM) and inactive: 1.05 (10 µM).
Consider `COc1ccc(C[C@H]2COC(=O)[C@@H]2Cc2ccc(O[C@@H]3O[C@H](CO)[C@@H](O)[C@H](O)[C@H]3O)c(OC)c2)cc1OC` [Arctiin], for which the nucleolar normality score was inactive: 1.05 (1 µM) and inactive: 0.922 (10 µM).
For `O=C(Nc1ccccc1-c1cn2c(CN3CCNCC3)csc2n1)c1cnc2ccccc2n1` the same measures were inactive: 1.03 and inactive: 1.04.
In the same order, the values of `N#Cc1cnc(Nc2cc(NC[C@H]3CNCCO3)c(C(F)(F)F)cn2)cn1` are inactive: 1 and inactive: 1.
For `CN(C)CC(=O)Nc1ccc2[nH]c(=O)c3ccccc3c2c1` the same measures were inactive: 0.999 and inactive: 1.06.
For the molecule `CNC(=O)c1cc(Oc2ccc(NC(=O)Nc3ccc(Cl)c(C(F)(F)F)c3)c(F)c2)ccn1` [Regorafenib (BAY 73-4506)], the nucleolar normality score reads like this: (1 µM) inactive: 1.01; (10 µM) inactive: 1.12.
In the same order, the values of `Nc1nc2[nH]cnc2c(=S)[nH]1` [Thioguanine] are inactive: 0.903 and inactive: 0.947.
In the same order, the values of `O=C1NC(=NCc2cccs2)S/C1=C\c1ccc2ncccc2c1` are inactive: 1.04 and inactive: 0.938.
In the case of `NC(=O)c1ccc(-c2nc(-c3ccc4c(c3)OCCO4)c(-c3ccccn3)[nH]2)cc1`, the nucleolar normality score was inactive: 0.987 (1 µM) and inactive: 1.09 (10 µM).
For `O=C1c2c(O)cccc2C([C@@H]2O[C@H](CO)[C@@H](O)[C@H](O)[C@H]2O)c2cc(CO)cc(O)c21` (stereo partly drawn) [Aloin] the same measures were inactive: 1.06 and inactive: 0.903.
As to `O=C(Nc1cccc(C(F)(F)F)c1)Nc1cc(S(=O)(=O)NC2CC2)ccc1-c1ccsc1`, the nucleolar normality score is inactive: 0.997 (1 µM) and inactive: 1.02 (10 µM).
Regarding `C=CCc1cccc(/C=N/NC(=O)CN2CCN(Cc3ccccc3)CC2)c1O`, the nucleolar normality score by setting is: (1 µM) inactive: 1.03; (10 µM) inactive: 0.905.
In the same order, the values of `Cc1cc(O)c2c(c1)C(=O)c1cccc(O)c1C2=O` [Chrysophanic Acid] are inactive: 0.985 and inactive: 0.86.
In the same order, the values of `O=c1ccc2cc(O)c(O)cc2o1` [Esculetin] are inactive: 0.976 and inactive: 0.866.
Take `COCCNCc1ccc(-c2cc3nccc(Oc4ccc(NC(=O)C5(C(=O)Nc6ccc(F)cc6)CC5)cc4F)c3s2)nc1` [Sitravatinib (MGCD516)]: the nucleolar normality score reads like this: (1 µM) inactive: 0.974; (10 µM) inactive: 1.02.
For the molecule `Cc1c[nH]c(C=C2C(=O)Nc3ccccc32)c1CCC(=O)O`, the nucleolar normality score reads like this: (1 µM) inactive: 0.964; (10 µM) inactive: 1.04.
In the case of `O=S(=O)(NCCSSCCNS(=O)(=O)c1cc(Cl)ccc1Cl)c1cc(Cl)ccc1Cl`, the nucleolar normality score reads like this: (1 µM) inactive: 0.987; (10 µM) inactive: 1.
In the same order, the values of `CC[C@]1(O)C[C@H]2CN(CCc3c([nH]c4ccccc34)[C@@](C(=O)OC)(c3cc4c(cc3OC)N(C=O)[C@H]3[C@@](O)(C(=O)OC)[C@H](OC(C)=O)[C@]5(CC)C=CCN6CC[C@]43[C@@H]65)C2)C1` [Vincristine sulfate] are inactive: 0.945 and inactive: 0.965.
On to `CCOc1cc2ncc(C#N)c(Nc3ccc(F)c(Cl)c3)c2cc1NC(=O)/C=C/CN(C)C` [Pelitinib (EKB-569)], for which the nucleolar normality score is active: 0.814 (1 µM) and inactive: 0.876 (10 µM).
In the same order, the values of `C=C1C(=O)[C@]23[C@H](O)[C@H]1CC[C@H]2[C@@]12CO[C@]3(O)[C@@H](O)[C@@H]1C(C)(C)CC[C@@H]2O` [Oridonin] are inactive: 0.89 and active: 0.778.
As for `COc1ccc(C2=NC(c3ccc(Cl)cc3)C(c3ccc(Cl)cc3)N2C(=O)N2CCNC(=O)C2)c(OC(C)C)c1` (stereo not drawn) [Nutlin-3b], the nucleolar normality score (1 µM) was inactive: 1.02 and the nucleolar normality score (10 µM) is inactive: 1.06.
For `CCN(CC)CCNC(=O)c1c(C)[nH]c(/C=C2\C(=O)Nc3ccc(F)cc32)c1C` [Sunitinib] the same measures were inactive: 0.95 and inactive: 0.943.
For `Cc1[nH]c2ccccc2c1CCNC(=O)c1cccs1` the same measures were inactive: 0.979 and inactive: 1.05.
In the same order, the values of `N#Cc1c(O)c2c(-c3ccc(-c4ccccc4O)cc3)csc2[nH]c1=O` are inactive: 0.998 and inactive: 0.884.
Regarding `Cc1nc2ccc(-n3ncc(C(=O)c4cc5ccccc5[nH]4)c3N)cc2[nH]1`, the nucleolar normality score was inactive: 1.01 (1 µM) and inactive: 1.07 (10 µM).
For `O=c1cc(-c2cccc3c2Sc2ccccc2S3)oc(N2CCOCC2)c1` the same measures were inactive: 1.11 and inactive: 1.09.
Regarding `O=C(C=Cc1ccccc1)NC(NC(=S)Nc1ccc(Cl)cc1)C(Cl)(Cl)Cl` (stereo not drawn), the nucleolar normality score (1 µM) was inactive: 0.942 and the nucleolar normality score (10 µM) was inactive: 1.02.
In the same order, the values of `CC(C)(CNC(=O)c1cccc(-c2noc(C(F)(F)F)n2)c1)c1coc(-c2ccccc2)n1` are inactive: 1.05 and inactive: 1.07.
In the case of `Nc1nc(Cl)nc2c1ncn2[C@H]1C[C@H](O)[C@@H](CO)O1` [Cladribine], the nucleolar normality score was inactive: 0.905 (1 µM) and inactive: 1.01 (10 µM).
In the same order, the values of `Cc1nc(Nc2cnn(C3CCNCC3)c2)nc2c1N(C)C(=O)c1cc3ccccc3cc1N2C` are inactive: 1.01 and inactive: 1.01.
Turning to `CN(N=O)C(=O)NC1C(O)OC(CO)C(O)C1O` (stereo not drawn) [Streptozotocin (STZ)], the nucleolar normality score was inactive: 0.988 (1 µM) and inactive: 1.03 (10 µM).
In the same order, the values of `COc1ccccc1C(=O)Nc1cc2c(cc1N1CCCC1)n(C)c(=O)n2C` are inactive: 0.978 and inactive: 1.04.
